The data set deals with ATP. Nature of the data set: switch fluorescence ratio, 500 uM ATP over buffer (Cy3 cluster intensity, sum of 5 cycles each) (fold (ratio)); higher = stronger signal-on switching upon ATP binding; sequences stand for … in TCGTCGGCAGCGTCAGATGTGTATAAGAGACAGTTTTTTTTTTTTTTTTTTTTTTTTT…TC. The note with it: aptamer strand: ATP DNA aptamer (quencher-CACCTGGGGGAGTATTGCGGAGGAAGG + anchor), 100 nM annealed; ATP concentration: 500 uM; one replicate. In outline:
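Imaging in selection buffer was followed by imaging after 15 min with 500 uM ATP at 22 °C, for Cy3-labelled switching-strand clusters annealed to 100 nM quencher-labelled ATP aptamer on a modified Illumina MiSeq flow-cell. Five of these buffer/ATP cycles ran, separated by NaOH stripping and re-annealing. The fluorescence ratio per cluster is summed target-cycle over summed buffer-cycle Cy3 intensity, averaged per switch-domain sequence; clusters outside 100-1000 RFU were removed.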

Values marked as one replicate rest on one cluster of the flow cell; about a third of the high ones do not repeat.
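Also: ATP exposure 15 min at 22 °C before imaging.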

Regarding CTTAGTACG, the switch fluorescence ratio came to 1.01.

As for GCTAGCAAGT, the switch fluorescence ratio turned out to be 1.08.

As to CTCAGGCGAG, the switch fluorescence ratio turned out to be 1.04.

As for ATGGAAATGC, the switch fluorescence ratio was 1.08.

With ATCAGTTCTG, the switch fluorescence ratio amounted to 0.983.

With GGTAAATGCG, the switch fluorescence ratio was found to be 1.03.

On to AGGGTTAAA, for which the switch fluorescence ratio stood at 0.994.

Take TCGGGAATGG: the switch fluorescence ratio came out at 0.994.

In the case of TTACCGTTAC, the switch fluorescence ratio was 1.39.

Consider CGTAATGAGG, for which the switch fluorescence ratio came out at 0.998.

As to GGTGCATCGA, the switch fluorescence ratio stood at 1.

Regarding AAGAACATGA, the switch fluorescence ratio was found to be 1.02.

For CCGGCCACGG, the switch fluorescence ratio turned out to be 1.02.

CAGGTCACAC: the switch fluorescence ratio amounted to 1.03.

As for GTGGATTGCT, the switch fluorescence ratio amounted to 0.946.

Turning to GGCAGGTACG, the switch fluorescence ratio came out at 0.957.

For the sequence TGCGCTAAGG, the switch fluorescence ratio worked out at 0.987.

With CATCGTCTGG, the switch fluorescence ratio was 1.02.

In the case of TATACATGCC, the switch fluorescence ratio was 1.46.

Regarding TTGCGGGTA, the switch fluorescence ratio was 1.01.

TCCAGCATG: the switch fluorescence ratio was determined as 1.04.

For the sequence ACGTAAGATT, the switch fluorescence ratio worked out at 1.11.

On to CGGCCCAGAG, for which the switch fluorescence ratio is 1.16.

With ACGCGAAGTA, the switch fluorescence ratio worked out at 1.02.

For the sequence AAGACGGATA, the switch fluorescence ratio was 0.95.

Regarding CCGAGTTCGA, the switch fluorescence ratio worked out at 1.23.

Turning to CGGTAAATTT, the switch fluorescence ratio was 0.99.

For the sequence CAGAAACGAG, the switch fluorescence ratio worked out at 1.01.

As for ACGTGCGGCG, the switch fluorescence ratio came to 0.928.

Consider ACAAGGCTAG, for which the switch fluorescence ratio is 1.04.

As to AGTCAGTTAC, the switch fluorescence ratio turned out to be 1.08.

As for CACGTTTACA, the switch fluorescence ratio was 1.31.

For the sequence GAACGTCGAC, the switch fluorescence ratio was 1.07.

As for AACCGACTCA, the switch fluorescence ratio is 2.06.

Consider TCAGCCCTTT, for which the switch fluorescence ratio is 0.995.

As for CTGGTAGTCT, the switch fluorescence ratio was determined as 1.04.

On to TAGTTCTATC, for which the switch fluorescence ratio is 0.987.

For GCCCTTTATC, the switch fluorescence ratio came out at 0.985.

ACAGAGGTGT: the switch fluorescence ratio came to 1.03.

On to GCTACCGACC, for which the switch fluorescence ratio was determined as 2.11.

As for GCAATTTCGA, the switch fluorescence ratio came out at 1.23.

In the case of AAAGGGTGTA, the switch fluorescence ratio came out at 0.998.

As to AATTAGTTCT, the switch fluorescence ratio is 0.99.

On to TCCAACTTAG, for which the switch fluorescence ratio was determined as 1.05.

Regarding CAGTAGATC, the switch fluorescence ratio is 1.05.

With CATTCAGGAA, the switch fluorescence ratio turned out to be 0.983.

With ATGTAGGAGT, the switch fluorescence ratio was 1.

Turning to CTTATCGCTT, the switch fluorescence ratio was found to be 0.961.

For ATTGTACCAG, the switch fluorescence ratio worked out at 1.02.

In the case of GTGAGAGACC, the switch fluorescence ratio is 0.944.

Turning to ATCCAGATG, the switch fluorescence ratio is 1.12.

Regarding GCTCAGTTAT, the switch fluorescence ratio is 1.09.

For GGTACACTGT, the switch fluorescence ratio is 1.

As to ATTTATGATG, the switch fluorescence ratio was found to be 0.974.

With GGTTCGATAA, the switch fluorescence ratio is 1.01.

As for GCGTCTCCGC, the switch fluorescence ratio is 1.17.

Turning to GAGGATCGAA, the switch fluorescence ratio was found to be 1.

Take CAATGATGAA: the switch fluorescence ratio came to 0.993.

Take AAGACATTTG: the switch fluorescence ratio amounted to 1.05.

Turning to AACATACGTA, the switch fluorescence ratio came to 1.35.

As for GGGCGTTCTA, the switch fluorescence ratio worked out at 0.96.

With AGCCTGGGGG, the switch fluorescence ratio worked out at 0.981.

Turning to AATAGGTCGG, the switch fluorescence ratio turned out to be 0.983.

As to GTGAGATATA, the switch fluorescence ratio came out at 1.03.

For the sequence CGCCAATGTT, the switch fluorescence ratio came out at 1.09.

ATAATACGG: the switch fluorescence ratio was determined as 1.

With TGCCAAGTGC, the switch fluorescence ratio is 1.03.

On to AGTCAACCAG, for which the switch fluorescence ratio was determined as 1.19.

On to GGTCCCGTGC, for which the switch fluorescence ratio stood at 1.04.

Consider ACACGTTACT, for which the switch fluorescence ratio came out at 1.6.

As to ATATATATAA, the switch fluorescence ratio amounted to 1.01.

As to CGCCTAGAAC, the switch fluorescence ratio was found to be 1.06.

As to TGCCATCACG, the switch fluorescence ratio came to 1.01.

For the sequence AGTTATTGGG, the switch fluorescence ratio is 0.97.

Consider ATAAGCCGAG, for which the switch fluorescence ratio was found to be 0.982.

Consider GACATTAAGA, for which the switch fluorescence ratio was determined as 1.02.

As to GCGGGGCAAA, the switch fluorescence ratio stood at 1.06.

Consider AATTAATAAT, for which the switch fluorescence ratio was 0.975.

Consider GAGAGTTGGA, for which the switch fluorescence ratio was 0.95.

Take TGTACTAACG: the switch fluorescence ratio stood at 1.39.

Turning to TAATACTCGA, the switch fluorescence ratio stood at 1.07.

Regarding TCTGATTTC, the switch fluorescence ratio came to 1.12.

For TAGTGAAGAC, the switch fluorescence ratio stood at 0.936.

CTATCATCGT: the switch fluorescence ratio is 0.988.

With TCTGCAGAGT, the switch fluorescence ratio is 0.991.

AAGAGGGCTA: the switch fluorescence ratio was determined as 1.02.

In the case of GGTATCCCTG, the switch fluorescence ratio was 1.02.

GTGACCATTT: the switch fluorescence ratio was 1.01.

As to GAGGGTGGTC, the switch fluorescence ratio is 0.967.

As for AGAGCATGAA, the switch fluorescence ratio turned out to be 1.04.

As to TTCTAAGATG, the switch fluorescence ratio is 1.02.

Turning to AGCATGGGCC, the switch fluorescence ratio came to 1.07.

As for GCTCGGAGCT, the switch fluorescence ratio was 1.02.

In the case of CAGGAGCCCT, the switch fluorescence ratio was 1.06.

Consider CCAACAGTA, for which the switch fluorescence ratio came out at 1.01.

Consider TCAGCCTGAC, for which the switch fluorescence ratio worked out at 2.25.

On to GAGCAGGCTC, for which the switch fluorescence ratio was found to be 1.04.

For CTCCAATGGA, the switch fluorescence ratio turned out to be 1.07.

Regarding ATAGCGCGTC, the switch fluorescence ratio was 1.02.

For the sequence CCCCTGGAT, the switch fluorescence ratio turned out to be 1.05.

For GGGATGGTTG, the switch fluorescence ratio was 1.02.

Regarding ATTTGGGCCG, the switch fluorescence ratio came to 1.02.

Consider TCTAAACAGT, for which the switch fluorescence ratio was 1.01.

With GAAAGGGAGG, the switch fluorescence ratio stood at 0.997.

In the case of TGGACGACGA, the switch fluorescence ratio turned out to be 0.977.

On to CATTTGCATG, for which the switch fluorescence ratio stood at 0.998.

Consider AGTCTGTCCG, for which the switch fluorescence ratio was determined as 0.993.

On to GTATTCAAAC, for which the switch fluorescence ratio was determined as 0.965.

Take TCCTGTCTGA: the switch fluorescence ratio was 1.04.

Regarding GGAAGGATGA, the switch fluorescence ratio was 0.965.

For GGTTGGACCG, the switch fluorescence ratio turned out to be 1.01.

TGAATTGCCA: the switch fluorescence ratio worked out at 0.99.

Regarding GAATACGGCA, the switch fluorescence ratio worked out at 1.1.

As for GTATTCATCT, the switch fluorescence ratio stood at 1.01.

As for TGCAACTTAC, the switch fluorescence ratio turned out to be 1.75.

Take TTTTGGGCGC: the switch fluorescence ratio is 0.938.

AAAGTGCCTG: the switch fluorescence ratio came to 0.943.

Take TTTAATGCAG: the switch fluorescence ratio turned out to be 1.01.

Take CACTCCGAAT: the switch fluorescence ratio is 4.03.

Consider TTCGGTTTTA, for which the switch fluorescence ratio amounted to 1.01.

Values taken from the supplement of paper PMC10126150.
